Measured values taken from PubChem BioAssay AID743255 (National Center for Advancing Translational Sciences (NCATS), 2014).
Screen size: about 390,000 compounds; about 910 (0.23%) were called active. Roughly 5% stayed inconclusive and do not appear here. Calls follow the shape of the dose curve; as a rule, active = well fitted inhibition curve with a large enough effect; inconclusive = small, poorly fitted or top-dose-only effect; inactive = no such curve, though single readings can be large or run the other way. The entries are a selection whose mix differs from that of the whole data set.

target: Ubiquitin carboxyl-terminal hydrolase 1 (Homo sapiens) (UniProt O94782); test: Inhibitors of USP1/UAF1: Primary Screen; details: recombinant USP1/UAF1, Ub-Rhodamine cleavage fluorescence; activity change, negative = inhibition: at 57.1 µM (top of the series); also: nearly all actives have a fitted effect of over 60% in size
Summary of the method: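 High-throughput fluorogenic screen: 1nM USP1/UAF1 complex, Ub-Rho substrate 150nM final, 50mM HEPES pH 7.8 with 0.5mM EDTA, 0.1 mg/ml BSA, 1mM TCEP and 0.01% Tween-20.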
% is scaled to controls: 0 for no effect and ±100 for the full control effect; potency is read from the fitted curve at half-maximal effect.

Chain of UniProt O94782 (O94782 whole entry, looked up): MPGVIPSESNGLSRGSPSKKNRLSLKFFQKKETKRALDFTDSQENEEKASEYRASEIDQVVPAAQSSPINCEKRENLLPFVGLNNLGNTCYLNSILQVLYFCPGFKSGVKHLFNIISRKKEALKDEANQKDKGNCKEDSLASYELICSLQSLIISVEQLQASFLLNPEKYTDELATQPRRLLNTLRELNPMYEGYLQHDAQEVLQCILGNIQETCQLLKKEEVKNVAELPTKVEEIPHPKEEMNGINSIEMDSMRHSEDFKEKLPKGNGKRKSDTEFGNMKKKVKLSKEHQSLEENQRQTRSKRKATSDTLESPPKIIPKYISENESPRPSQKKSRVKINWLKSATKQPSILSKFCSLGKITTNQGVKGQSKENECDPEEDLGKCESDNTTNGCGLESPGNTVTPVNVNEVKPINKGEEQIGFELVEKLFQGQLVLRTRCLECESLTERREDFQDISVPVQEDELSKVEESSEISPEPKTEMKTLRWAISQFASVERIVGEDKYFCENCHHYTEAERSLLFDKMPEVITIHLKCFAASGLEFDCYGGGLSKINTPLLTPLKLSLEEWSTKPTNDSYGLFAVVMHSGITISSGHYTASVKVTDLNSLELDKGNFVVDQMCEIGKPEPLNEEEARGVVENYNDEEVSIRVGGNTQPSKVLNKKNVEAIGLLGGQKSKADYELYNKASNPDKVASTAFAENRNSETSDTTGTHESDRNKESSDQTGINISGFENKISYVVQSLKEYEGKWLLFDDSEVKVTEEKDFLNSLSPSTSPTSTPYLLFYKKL

SMILES	activity change, negative = inhibition	Potency
C=CCn1c(O)c(N=Nc2ccccc2O)c2ccccc21	inactive: 108%	–
O=C(NCc1cc(C(F)(F)F)ccc1Cl)c1cccc2c1C(=O)c1ccc(N3CCC(Cc4ccccc4)CC3)cc1S2(=O)=O	inactive: 314%	–
O=C1NC[C@H](c2ccccc2)OC(=O)[C@H](Cc2ccc(F)cc2)CC/C=C/C[C@@H]1CC(=O)N(CCO)Cc1ccccc1	inactive: -12%	–
O=C(N/N=C/c1cc(Cl)cc(Cl)c1O)c1ccncc1	–	active: 31.6 µM
CCO[C@@H]1OC(C(=O)N2CCN(C)CC2)=C[C@H](c2coc3ccccc3c2=O)[C@H]1CCCO	inactive: -12.8%	–
Cc1cccc(NC(=O)c2oc3ccccc3c2NC(=O)Cc2coc3cc(C)cc(C)c23)c1	inactive: 37.1%	–
Cc1cccc(CN2C(=O)c3ccccc3Sc3ccc(C(=O)NCCCN4CCOCC4)cc32)c1	inactive: -25.4%	–
C=CC[C@@H](Cc1ccc(F)cc1)C(=O)OC[C@@H]1CCCN1C(=O)[C@H](CC=C)CC(=O)NCCO	inactive: -16.3%	–
CCc1ccc(NC(=O)C2CCN(S(=O)(=O)c3c(C)noc3C)CC2)cc1	inactive: -17.5%	–
COC(=O)C[C@H]1C[C@H]2c3cc(NS(=O)(=O)c4ccc(OC)cc4)ccc3O[C@H]2[C@H](CO)O1	inactive: -3.85%	–
C[C@H](CO)NC(=O)c1nc[nH]c1C(=O)N[C@H](C)c1ccccc1	inactive: -24.8%	–
C=CC[C@@H](Cc1ccc(F)cc1)C(=O)OC[C@H]1CCCN1C(=O)[C@@H](CC=C)CC(=O)N(CCO)Cc1ccccc1	inactive: -26.6%	–
COc1cc(/C=C2\SC(=Nc3ccc(Cl)c(C(=O)O)c3)NC2=O)c(Br)c(Br)c1O	–	active: 17.8 µM
C[C@@H]1CN([C@H](C)CO)C(=O)CCCn2nncc2CO[C@@H]1CN(C)S(=O)(=O)c1ccccc1C#N	inactive: 0.649%	–
O=C(NC1CCCCC1)c1cccc2c1C(=O)c1ccc(N3CCC(Cc4ccccc4)CC3)cc1S2(=O)=O	inactive: 224%	–
O=C(O)c1cc(-c2ccco2)nc2ccc(Br)cc12	inactive: -18.5%	–
CCOC(=O)c1c(Nc2ccc(Cl)cc2)sc(/C=C2\C=Nc3ccccc32)c1O	inactive: 74.5%	–
COC(=O)N[C@@H]1C[C@H]2[C@@H]3CC[C@H]4C[C@@H](OC)CC[C@]4(C)[C@H]3CC[C@@]12C	inactive: -17.2%	–
COc1cccc(NC(=O)C2CCCN2S(=O)(=O)c2ccc3c(c2)C(C)(C)C(=O)N3C)c1 (configuration not stated)	inactive: -20.9%	–
O=c1oc2ccccc2cc1-c1nc(-c2cccs2)cs1	inactive: 265%	–
O=C(NCc1ccccc1)C1=C[C@@H](c2csc3ccccc23)C[C@@H](OCCCCO)O1	inactive: -27%	–
O=C(c1ccc(OCCN2CCCCC2)cc1)c1c(-c2ccc(O)cc2)sc2cc(O)ccc12	inactive: 3.67%	–

SMILES	activity change, negative = inhibition	Potency
C[C@@H]1CN([C@@H](C)CO)C(=O)CCCn2nncc2CO[C@H]1CN(C)C(=O)Nc1ccc2c(c1)OCO2	inactive: 5.63%	–
Nc1cccc2c(O)cc(S(=O)(=O)O)cc12	–	active: 25.1 µM
O=C(NC1CC1)C1=C[C@@H](c2c[nH]c3ccccc23)C[C@@H](OCCCCO)O1	inactive: -14.4%	–
COc1ccc(NC(=O)c2oc3ccc(S(=O)(=O)N4CCOCC4)cc3c2C)cc1	inactive: -7.31%	–
C[C@H]1CN([C@@H](C)CO)C(=O)CCCn2nncc2CO[C@H]1CN(C)S(=O)(=O)c1ccccc1F	inactive: -13.6%	–
CCCCCCN1C[C@H](n2cc(-c3ccc(F)cc3)nn2)[C@@H](O)C[C@@H]1c1ccc(OC)cc1	inactive: 3.4%	–
O=C(Nc1nc2c(s1)CN(Cc1ccccc1)CC2)c1cccc(S(=O)(=O)N2CCc3ccccc32)c1	–	active: 28.2 µM
Oc1ccc(C[C@@H]2CNCCN2CCCCC2CCCCC2)cc1	inactive: -5.72%	–
COCCCNC(=O)C(C#N)c1nc2ccccc2nc1N1CCCC1 (configuration not stated)	inactive: 28.9%	–
COc1cc2c3nnc(-c4ccc(F)cc4)c-3cn(Cc3ccccc3)c2cc1OC	–	active: 31.6 µM
Cn1c(Nc2ccc(Cl)cc2)cc(=O)n(C)c1=O	inactive: -8.39%	–
C=CCN1C=CC(=C/C=C(/C#N)C(=O)OCC)C=C1	–	active: 28.2 µM
C[C@H](CO)N1C[C@H](C)[C@@H](CN(C)Cc2cncnc2)Oc2cc(Br)ccc2S1(=O)=O	inactive: 3.86%	–
CCOc1ccc(NC(=O)CC2C(=O)N(c3ccccc3)C(=O)N2CCc2cccs2)cc1 (configuration not stated)	inactive: 1.69%	–
O=C(NCc1ccccn1)[C@H]1C[C@@H]1[C@H](NP(=O)(c1ccccc1)c1ccccc1)c1ccccc1	inactive: 3.43%	–
C[C@@H]1CN([C@H](C)CO)C(=O)CCCn2cc(nn2)CO[C@H]1CN(C)S(=O)(=O)c1ccc(Oc2ccccc2)nc1	inactive: -6.99%	–
CC1CCCCC1NC(=O)COC(=O)c1c2c(nc3ccccc13)/C(=C/c1ccco1)CC2 (configuration not stated)	inactive: -22.3%	–
CCOc1ccc(N=C2NC(=O)S/C2=C\c2ccc(N(C)C)cc2)cc1	–	active: 28.2 µM
CCN(CC)c1nc2ccccc2nc1C(C#N)C(=O)NCCc1ccccc1 (configuration not stated)	inactive: 150%	–
C[C@H](CO)N1C[C@H](C)[C@@H](CN(C)C(=O)CCC(F)(F)F)OCc2cnnn2CCCC1=O	inactive: -21.5%	–
N=C1/C(=C\c2ccc(-c3cccc(C(=O)O)c3)o2)C(=O)N=C2SC=C(c3ccccc3)N12	inactive: -12.6%	–
O=C(NCCS(=O)(=O)N1CCN(c2ccccc2)CC1)C1CC(=O)N(c2ccccc2)C1 (configuration not stated)	inactive: -1.15%	–

SMILES	activity change, negative = inhibition	Potency
CCOc1cc(N(CC)CC)ccc1/C=C(/C#N)c1nc2ccccc2[nH]1	inactive: 30.2%	–
Cc1c(NC(=O)c2cc(-c3cccc(Cl)c3)on2)c(=O)n(-c2ccccc2)n1C	inactive: -10.2%	–
S=C(Nc1ccc(N2CCOCC2)cc1)Nc1ccc2nc(-c3ccco3)c(-c3ccco3)nc2c1	–	active: 25.1 µM
O=C1CC(=O)Nc2cc(S(=O)(=O)N3CCOc4ccccc43)ccc2N1	inactive: -2.63%	–
CCCOc1cc2c(C#N)c(N3CCCC3)nc(N)c2c(N)n1	–	active: 28.2 µM
CCO[C@H]1OC(C(=O)NC2CC2)=C[C@@H](c2csc3ccccc23)[C@@H]1CCCO	inactive: -25.1%	–
COc1cccc(CNC(=O)C(C)n2ccc3cc(S(=O)(=O)N4CCCCCC4)ccc32)c1 (configuration not stated)	inactive: -13.3%	–
CC(C)NC(=O)Nc1ccc2c(c1)C(=O)N([C@H](C)CO)C[C@H](C)[C@@H](CN(C)Cc1ccc(C(F)(F)F)cc1)OCCCC[C@@H](C)O2	inactive: -9.87%	–
COc1ccc(CNC(=O)c2nnn(CC(=O)Nc3cc(C)cc(C)c3)c2N)cc1	inactive: -17.7%	–
COc1cc(NCCCC(C)N)c2ncccc2c1 (configuration not stated)	–	active: 5.01 µM
O=C1C(Nc2ccccc2)=C(N2CCCCC2)C(=O)c2ccccc21	–	active: 25.1 µM
Cc1nn(Cc2ccc(Cl)cc2)c(C)c1NC(=O)c1noc2c1CCc1ccccc1-2	inactive: -17.1%	–
CC(C)Oc1ccc(CNC(=O)Cn2c(=O)oc3ccccc32)cc1	inactive: -25.8%	–
CCN=C1SC(CC(=O)Nc2ccccc2)C(=O)N1CC (configuration not stated)	inactive: -20.7%	–
Cc1cc(-c2ccccc2)c2c3c(c(-c4ccccc4)n2n1)c(=O)n(C)c(=O)n3C	inactive: 36.9%	–
C[C@@H]1CN([C@@H](C)CO)C(=O)CCCn2nncc2CO[C@H]1CN(C)C(=O)C1CCCCC1	inactive: -16.1%	–
COc1cccc(-c2cc(C(=O)Nc3ccn(Cc4ccc(C)cc4)n3)no2)c1	inactive: -10.4%	–
C[C@H]1CCC[C@@]2(O[C@@H](CCO)C[C@@H](O)[C@@H]2O)O1	inactive: -23.4%	–
CCN(CC)c1ccc2cc(-c3nc4ccccc4[nH]3)c(=O)oc2c1	inactive: -19.7%	–
C=CCOC(=O)C1=C[C@@H](c2ccc(C(F)(F)F)cc2)C[C@@H](OCCCCO)O1	inactive: -28.2%	–
C[C@H](CO)N1C[C@H](C)[C@@H](CN(C)C(=O)c2cc(-c3ccccc3)on2)OCc2cn(nn2)CCCC1=O	inactive: -10.7%	–
COC(=O)N(C)C[C@@H]1OCc2cnnn2CCCC(=O)N([C@@H](C)CO)C[C@@H]1C	inactive: 0.0876%	–

SMILES	activity change, negative = inhibition	Potency
O=c1oc2cc(O)ccc2cc1-c1nnc(Nc2ccccc2F)s1	inactive: 143%	–
C[C@H]1CCC[C@@]2(O[C@H](CCO)C[C@@H](O)[C@@H]2O)O1	inactive: -9.48%	–
O=C1/C(=C\c2ccccn2)SC(=S)N1Nc1ncc(C(F)(F)F)cc1Cl	inactive: -11.7%	–
OCC[C@H]1C[C@H](O)[C@@H](O)[C@]2(CCCO2)O1	inactive: 12.2%	–
COC(=O)C[C@@H]1C[C@H]2c3cc(NC(=O)CC4CC4)ccc3O[C@H]2[C@@H](CO)O1	inactive: -19.1%	–
C[C@@H]1CN([C@H](C)CO)C(=O)CCCn2nncc2CO[C@H]1CN(C)C(=O)c1ccc2ccn(C)c2c1	inactive: 1.06%	–
c1ccc(-n2ncc3c2ncn2nnnc32)cc1	inactive: 58.3%	–
Nc1cc(-c2ccncc2)c[nH]c1=O	–	active: 39.8 µM
CC(C)(C)OC(=O)C[C@@H]1C/C=C\C[C@@H](CC(=O)N[C@H](CO)Cc2ccccc2)C(=O)NCCOC1=O	inactive: -21.1%	–
COc1cc(NC(=O)CSc2ncccc2C(=O)OC(C)C)cc(OC)c1	inactive: 0.903%	–
COC1=C(N)C(=O)c2nc(C)ccc2C1=O	–	active: 7.08 µM
C=CCc1ccccc1OCC(O)CN1CCN(c2ccccc2OC)CC1 (configuration not stated)	inactive: -13.9%	–
O=C(Cn1cnc2ccccc2c1=O)NCCC(=O)Nc1ccc(F)cc1	inactive: -19.7%	–
CCN(CC)c1ccc(/C=C/C(=O)C2C(=O)C=C(C)OC2=O)cc1 (configuration not stated)	–	active: 4.47 µM
COc1cccc(NC(=O)N(C)C[C@@H]2OCc3cnnn3CCCC(=O)N([C@H](C)CO)C[C@@H]2C)c1	inactive: -16.9%	–
CCOC(=O)c1ccc(-n2c(CCC(=O)O)ccc2-c2ccccc2)cc1	inactive: -8.7%	–
C[C@H](CO)N1C[C@H](C)[C@@H](CN(C)C(=O)c2ccc3ccn(C)c3c2)OCc2cnnn2CCCC1=O	inactive: -14.4%	–
Cn1nc(C(=O)N2CCN(c3ccccc3F)CC2)c2c1-c1ccccc1S(=O)(=O)C2	inactive: -9.89%	–
CC(C)CSC1=NSC2=NC(=O)/C(=C\c3coc4ccccc4c3=O)C(=N)N12	–	active: 4.47 µM
COc1cccc(S(=O)(=O)N(C)C[C@H]2Oc3cc(Br)ccc3S(=O)(=O)N([C@@H](C)CO)C[C@H]2C)c1	–	active: 17.8 µM
Cc1cccc(N(C(=O)c2sc(C)nc2C)C(C(=O)NCc2ccco2)c2ccccc2)c1 (configuration not stated)	inactive: 31.4%	–
